# Screen size: about 50,000 compounds; about 800 (1.6%) showed an effect of 50% or more. This is one part of the list.
# Target: Bcl-2-like protein 10 (Homo sapiens) (UniProt Q9HD36)
# Test: Phenotype converters, Bcl-B/TR3 peptide binding displacement, primary biochemical FP (AID 1240);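 note: 0% = Bcl-B with tracer peptide and DMSO and 100% = tracer peptide lacking Bcl-B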
# Conditions: GST-Bcl-B / FITC-TR3 peptide fluorescence polarization; stronger effect = higher value; compound at 3.75 mg/L
# UniProt Q9HD36, sequence (Q9HD36 whole entry, looked up): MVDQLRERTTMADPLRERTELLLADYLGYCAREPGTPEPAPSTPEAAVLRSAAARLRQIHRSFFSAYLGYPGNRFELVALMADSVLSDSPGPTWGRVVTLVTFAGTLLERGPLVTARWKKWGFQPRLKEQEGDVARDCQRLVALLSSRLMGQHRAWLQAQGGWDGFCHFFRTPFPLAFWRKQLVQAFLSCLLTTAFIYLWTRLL
row,Structure (SMILES),displacement [%]
1,COc1ccc(/C(N)=N/OC(=O)c2cccc(Br)c2)cc1,0.5
2,C=CCOc1ccc(-c2nc3sc4c(c3c(=O)[nH]2)CCCC4)cc1Br,-20
3,Cc1ccc(NC(=O)C(=O)NCC(C)C)cc1,11
4,Cc1ccc(-c2cc(=O)c3cc(Cl)ccc3o2)cc1,14.4
5,COc1cc(NC(=O)c2cc3nc(-c4cccs4)cc(C(F)(F)F)n3n2)cc([N+](=O)[O-])c1,-0.7
6,CCOC(=O)c1c(NC(=S)NC(=O)/C=C/c2ccco2)sc(C)c1C,23.9
7,Cc1ccc2oc(C(Cl)(Cl)Cl)cc(=O)c2c1,10
8,O=C(N1CCN(c2ccc([N+](=O)[O-])cc2)CC1)S(=O)(=O)c1ccccc1,12.3
9,CCC(Oc1ccccc1)C(=O)Nc1ncccn1 (configuration not stated),-0.1
10,Cc1nc(NC(=O)c2ccccc2)sc1-c1csc(Nc2cccc(C(=O)O)c2)n1,7
11,CCCOc1cccc(C(=O)Nc2cc3nn(-c4ccccc4)nc3cc2C)c1,2.2
12,COc1ccc(/C=C/C(=O)NCC(C)NC(=O)/C=C/c2ccc(OC)c(OC)c2)cc1OC (configuration not stated),-6.7
13,Cc1cc(C(=O)Nc2ccc(N3CCOCC3)cc2)ccc1[N+](=O)[O-],-4.2
14,CN(C)c1cccc(C(=O)Nc2nccs2)c1,5.7
15,CCC(C)NC(=O)C(=O)NCCc1ccccc1 (configuration not stated),5.5
16,Cc1ccc(NC(=O)Cc2nnc(NC(=O)Nc3cccc(Cl)c3)s2)cc1,5.1
17,CCOCCOC(=O)C1=C(C)NC2=C(C(=O)CCC2)C1c1ccc(OC)c(O)c1 (configuration not stated),-8.7
18,Cc1onc(-c2ccccc2)c1[N+](=O)[O-],3.6
19,COc1ccccc1-n1c(CSCC(=O)Nc2ccc3ccccc3c2)nc2ccccc2c1=O,-8.5
20,O=C(/C=C/c1ccccc1)CC(=O)C(Cl)(Cl)Cl,11
21,Nc1ccc(-c2cc(-c3ccc(N)cc3)nc(-c3ccc(N)cc3)n2)cc1,-3.2
22,COc1ccc(NC2(c3ccccc3)OC(=O)c3ccccc32)cc1 (configuration not stated),11.4
23,COC(=O)CC1(C(=O)OC)NC(=O)C(N)=C1C(=O)OC (configuration not stated),4.1

row,Structure (SMILES),displacement [%]
1,CCC(Sc1nc2ccccc2[nH]1)C(=O)Nc1ccc(S(N)(=O)=O)cc1 (configuration not stated),-8.1
2,CCOC(=O)c1c(-c2cccs2)csc1NC(=O)c1ccc(N2C(=O)CCC2=O)cc1,-8.8
3,Clc1ccc(C2NN=C(Cc3ccccc3)S2)c(Cl)c1 (configuration not stated),-3.3
4,CCOC(=O)C1CCN(C(=O)Cc2ccc(Cl)cc2)CC1,19.7
5,CCN1C(=O)/C(=C\c2ccc(N(C)C)c(Br)c2)SC1=S,18.2
6,O=C(O)c1c2c(nc3ccccc13)CCCCCC2,-6.4
7,CC(NC(=O)/C(=C\c1ccc2c(c1)c1ccccc1n2C)NC(=O)c1ccccc1)c1ccccc1 (configuration not stated),-9.7
8,Cc1ccc(/C(O)=C2\C(=O)C(=O)N(c3nncs3)C2c2cccc(Cl)c2)cc1 (configuration not stated),12.7
9,Cc1cc2c(CC(O)C(Cl)(Cl)Cl)nc(-c3ccccc3)nc2s1 (configuration not stated),5.1
10,CCOc1ccccc1/C=C1/C(=O)NN(c2ccccc2)C1=O,15.7
11,O=C(/C=C/c1ccc([N+](=O)[O-])cc1)NCCSc1ccccc1,-0.7
12,O=C1C(=O)/C(=C/c2ccccc2)CCC/C1=C/c1ccccc1,-14.3
13,CC(NC(=O)/C(C#N)=C/c1ccc(Cl)c(Cl)c1)c1ccccc1 (configuration not stated),5.2
14,O=C1NN(c2ccccc2)C(=O)/C1=C/c1cccc(OCc2ccccc2F)c1,-19.8
15,CC1=C(C(=O)Nc2ccccc2)C(c2cccs2)NC(=O)N1 (configuration not stated),-1.5
16,CCOc1ccc(NC(=O)CC2S/C(=N\N=C(/C)c3ccco3)NC2=O)cc1 (configuration not stated),-2
17,COc1cccc(C2/C(=C(\O)c3ccccc3)C(=O)C(=O)N2CCCC(=O)O)c1 (configuration not stated),-8
18,O=C(CC1SC(=O)NC1=O)Nc1ccc(C(=O)O)cc1 (configuration not stated),15
19,Nc1nonc1C(=O)NCCNC(=O)c1ccccc1Cl,3
20,COc1ccccc1CN1CCN(C(=O)c2cc(OC)c(OC)c(OC)c2)CC1,7.9
21,COc1cc(/C=C2\SC(=S)N(NC(=O)c3ccc(Br)cc3)C2=O)ccc1O,-3.5
22,COc1ccc(CNC2CC(C)N(C)CC2C)cc1OC (configuration not stated),-7.4
23,CN1CCN(C2=NC(=O)/C(=C/c3ccc([N+](=O)[O-])cc3)S2)CC1,7.2

row,Structure (SMILES),displacement [%]
1,CCOC(=O)c1c(NC(=O)C23CC4CC(CC(C4)C2)C3)sc(C(C)=O)c1C,-8.2
2,O=C(/C=C/c1ccco1)Nc1cc(Cl)ccc1Cl,-3
3,NS(=O)(=O)c1ccc(N=Cc2ccccc2)cc1,9.4
4,Cc1ccc(NC(=O)c2sc3ccccc3c2Cl)nc1,5.1
5,CC(=O)N/C(=C\c1ccccc1)C(=O)NC(CC(C)C)C(=O)O (configuration not stated),-2.1
6,O=C(c1cccnc1)N1CCN(C(=O)c2ccco2)CC1,3.1
7,O=C1NC(=Nc2ccc(O)cc2)S/C1=C\c1ccc(Cl)cc1,0.3
8,C/C(=N\NC(=O)C(C)Oc1ccc(Cl)cc1)c1ccccc1 (configuration not stated),4.7
9,CCOC(=O)C(=CNc1ccc([N+](=O)[O-])cc1)C(=O)OCC,24.4
10,c1ccc(-c2cnc(-c3cccnc3)o2)cc1,10
11,Cc1cccc(C(=O)Nc2ccc3oc(-c4ccc(N(C)C)cc4)nc3c2)c1,35.7
12,COc1ccc2nc(NC(=O)COC(=O)CN3C(=O)c4ccccc4C3=O)sc2c1,18.6
13,Cc1c(Br)c(C(F)(F)F)nn1CC(=O)Nc1cc(C(F)(F)F)ccc1Cl,10
14,CCOc1cc(OCC)cc(C(=O)Nc2ccc(Cc3ccncc3)cc2)c1,-6.4
15,COC(=O)C1=C(C)N(c2cccc(C)c2)C(=O)/C1=C\c1ccccc1[N+](=O)[O-],9.9
16,NCC(O)C12CC3CC(CC(C3)C1)C2 (configuration not stated),-1.4
17,COc1ccc(C2Nc3ccccc3-c3nnc(SC)nc3O2)c(OC)c1 (configuration not stated),13.5
18,CN1C(=O)/C(=C/c2ccc(OC(=O)c3ccco3)cc2)SC1=S,14.7
19,CCOc1ccc2nc(NC(=O)c3ccc(Cl)cc3)sc2c1,5.6
20,Cc1onc(-c2ccccc2Cl)c1C(=O)Nc1ccc(C(N)=O)cc1,4.7
21,Cc1[nH]n(-c2ccccc2)c(=O)c1/C=N/NCc1ccccc1,-22
22,Cc1ccc(S(=O)(=O)n2cccc2)cc1,-9.1
23,COc1ccc(-n2nc3cc(C)c(NC(=O)c4cccc5ccccc45)cc3n2)cc1,2.4

row,Structure (SMILES),displacement [%]
1,CC(=O)OC1(C(=O)O)C2CC3CC(C2)CC1C3 (configuration not stated),-4.4
2,CC(Oc1ccccc1)C(=O)Nc1ccc(I)cc1 (configuration not stated),10.1
3,COc1cc2c(cc1OC)-c1nnc(-c3ccc(Br)o3)n1C(C)(C)C2,-2.5
4,O=C(c1cccc(F)c1)N1CCN(c2cc(N3CCOCC3)c(F)cc2[N+](=O)[O-])CC1,-6.5
5,Cc1ccc(/C(O)=C2/C(=O)C(=O)N(CCCn3ccnc3)C2c2ccccc2F)cc1 (configuration not stated),9
6,O=C(Nc1ncc(Cc2cc(Cl)ccc2Cl)s1)c1ccccc1Br,5.4
7,C=CCOc1ccc(/C=C2\C(=O)NC(C)=C2C(=O)OC)cc1OC,33.1
8,CCN(CC)CCCCOc1ccc(Cl)c(C)c1,-10.7
9,Fc1ccccc1/C=N/Nc1ccccn1,15.8
10,Cc1ccc(N=Cc2ccc(C#N)cc2)cc1F,-9.7
11,O=C(c1ccc(S(=O)(=O)N2CCCC2)cc1)N1CCCc2ccccc21,0.6
12,CCOC(=O)c1sc(NC(=O)c2ccc(Br)s2)nc1-c1ccccc1,-10.2
13,CCC1CCCCN1Cc1c(O)ccc2c(=O)c(-c3ccc(Cl)cc3)coc12 (configuration not stated),4.3
14,Cc1cc(C)c(C(=O)c2ccc(C(=O)O)cc2)c(C)c1,3.1
15,CCOc1ccc(NC(=O)c2c(NC(=O)c3ccco3)sc3c2CCC(C)C3)cc1 (configuration not stated),1
16,Clc1ccc(-c2nc(-c3cccnc3)no2)c(Cl)c1,1.1
17,CCc1ccc(Nc2cc(C)nc3ncnn23)cc1,3.7
18,CCN(CC)CCN1C(=O)C(O)=C(C(=O)/C=C/c2ccccc2)C1c1ccccc1[N+](=O)[O-] (configuration not stated),3.2
19,CCCCN1C(=O)/C(=C/c2ccc(OC)cc2OC)SC1=S,6.8
20,O=C(Nc1ccc(Br)cc1)c1cccc2c1C(=O)c1ccccc1-2,5.8
21,CCN1C(=O)/C(=C\c2cccc(O)c2)C(C(=O)OC)=C1C,-14.6
22,COc1cc(C=NN2CCN(Cc3ccccc3)CC2)cc(OC)c1OC,-9.5
23,COc1cc(NC(=O)c2cccc([N+](=O)[O-])c2C)cc(OC)c1,4.1

row,Structure (SMILES),displacement [%]
1,CCOC(=O)C1=NN(C(=O)c2cccc([N+](=O)[O-])c2)C(O)(c2ccc(Cl)cc2)C1 (configuration not stated),-21.4
2,COC(=O)c1ccccc1NC(=O)c1ccc(Cl)cc1,1
3,C=CCNC(=O)COc1cccc(C)c1,6.2
4,O=C(NCCCN1CCOCC1)c1nn2c(c1Br)NC(c1cccs1)CC2C(F)(F)F (configuration not stated),5.9
5,O=C(NC1CCN(Cc2ccccc2)CC1)c1ccc(Br)cc1,-16.1
6,Clc1ccc(/C=N\N2CCN(c3ccc(Cl)cc3)CC2)cc1,-8
7,Cc1cccc(NC(=O)c2cc(-c3cccs3)nc3ccccc23)c1,-3
8,NC(=O)C1CCN(c2ccc(C(F)(F)F)cc2[N+](=O)[O-])CC1,-0.4
9,CN(C)c1ccc(/C=N\OC(=O)Nc2ccccc2Cl)cc1,7.2
10,COc1ccc(Cl)cc1C(=O)Nc1cccc(C)c1C,-7.7
11,COc1cc2ccccc2cc1C(=O)Nc1ccc(F)c([N+](=O)[O-])c1,-0.4
12,O=C1c2ccccc2C(=O)c2c(NC(=O)C3CC4CCC3C4)cccc21 (configuration not stated),-7.7
13,CCS(=O)(=O)c1nc2ccc([N+](=O)[O-])cc2s1,-7.2
14,CCOc1cc(OCC)cc(C(=O)Nc2cccnc2)c1,-8.3
15,O=C(c1ccc(C#CC2(O)CCCCC2)cc1)N1CCN(c2cccc(Cl)c2)CC1,-6.5
16,C=C(C)CSc1nc2sc3c(c2c(=O)n1Cc1ccccc1)CCC3,-5
17,CCOc1ccc(NC(=O)c2c(NC(=O)COc3ccccc3)sc3c2CCC3)cc1,-3
18,COc1ccc(CNC(=O)C(=O)NCc2ccccc2)cc1,8.9
19,O=C(Nc1ccccc1O)c1ccccc1I,-2.2
20,OC1CC(c2ccccc2)NC2(CCCC2)C1 (configuration not stated),4.5

# From PubChem BioAssay AID1240 (Sanford-Burnham Center for Chemical Genomics, 2008)
